Data as given in the antibiotic and cytotoxicity screens of Wong et al. (2023).
This is one part of the list.

test system: S. aureus RN4220; test: growth inhibition call (relative growth <= 0.2); conditions: 50 µM

Growth inhibition call, inactive:
COc1ccc(CN(C)C[C@@H]2Oc3ccc(NC(=O)Cn4cnnn4)cc3C(=O)N([C@H](C)CO)C[C@H]2C)cc1
COc1ccc(CN(C)C[C@H]2Oc3ccc(NC(=O)CCCCCC(=O)Nc4ccccc4N)cc3CC(=O)N([C@H](C)CO)C[C@H]2C)cc1
O=C1O[C@@H](c2ccccc2)[C@@H](c2ccccc2)N2[C@@H](c3ccc(O)cc3)[C@]3(C(=O)Nc4ccccc43)[C@@H](C(=O)N3CCCCCCC3)[C@H]12
O[C@H]([C@H](O)[C@@H]1CO1)[C@H]1CO1
